Over roughly 18,000 sequences, “TetR repression strength (sort-seq, GFP reporter)” has its median near 0.23; the highest 2% begin near 0.68. Some of the results follow.

The target in the assay is TetR (class B, Tn10) (UniProt P04483). Briefly: TetR repression strength (sort-seq, GFP reporter) (relative to tetO2 = 1); higher = stronger repression. The note with it: E. coli. The gist of the method: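 Repression strength is the top bin index plus one minus the read-weighted mean bin, relative to the unaltered operator's value. A low-copy library in E. coli SIG10-MAX randomized eight operator positions between a constitutive promoter and sfGFP, with TetR expressed constitutively; cells grew 5 h at 37 °C in LB with 50 µg/mL chloramphenicol and 10^6 were FACS-sorted into 13 bins that were each Illumina-sequenced. Three independent transformations were averaged, keeping only members with ≥30 reads in all replicates and CV ≤0.5.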
UniProt P04483, sequence (P04483 whole entry): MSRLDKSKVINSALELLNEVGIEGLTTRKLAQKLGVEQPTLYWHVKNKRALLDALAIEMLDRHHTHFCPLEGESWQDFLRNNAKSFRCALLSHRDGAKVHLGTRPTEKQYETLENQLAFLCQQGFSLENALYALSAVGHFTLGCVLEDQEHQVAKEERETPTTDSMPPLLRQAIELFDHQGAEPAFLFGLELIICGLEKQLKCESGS
Sequence TCCCAGAGAGTGGGCGAGA came in with a TetR repression strength of 0.209. Take TCCCGGACAGTTGTGGAGA: the TetR repression strength was 0.209. Take TCCCAAGGAGTGAAGGAGA: the TetR repression strength was 0.0263. Turning to TCCCTTTCAGTGAGTGAGA, the TetR repression strength came out at 0.488. In turn, TCCCGCATAGTAGATGAGA had a TetR repression strength of 0.207. Then TCCCACTCAGTTGTTGAGA, with 0.303.

The sequence TCCCTAGGAGTTATCGAGA returned a TetR repression strength of 0.0601. Then TCCCTAGCAGTTCTGGAGA, with 0.161; and TCCCTCCGAGTATGGGAGA, with 0.302. As to TCCCATTTAGTTTCGGAGA, the TetR repression strength is 0.21. As to TCCCAAGGAGTGGGTGAGA, the TetR repression strength was found to be 0.185. For TCCCTAGCAGTGATAGAGA, the TetR repression strength was found to be 0.858. Turning to TCCCTCTGAGTGTCTGAGA, the TetR repression strength worked out at 0.34. For the sequence TCCCGTTCAGTGTTAGAGA, the TetR repression strength was determined as 0.596. In turn, TCCCCCGGAGTGTACGAGA displayed a TetR repression strength of 0.212. The sequence TCCCAGTAAGTTAGTGAGA yielded a TetR repression strength of 0.33. For TCCCGACCAGTGGGGGAGA the value was 0.219. Then TCCCACTTAGTGTCCGAGA, with 0.195; and TCCCCAGCAGTCATTGAGA, with 0.37; and TCCCTCAAAGTCGTTGAGA, with 0.312. As for TCCCCTTGAGTAGTGGAGA, the TetR repression strength is 0.153. As for TCCCGTCAAGTTTCTGAGA, the TetR repression strength was 0.104. For TCCCCGCGAGTCACGGAGA the value was 0.201; for TCCCTGAAAGTCGTGGAGA, 0.0754; for TCCCAAATAGTGTGTGAGA, 0.241. As for TCCCCTCGAGTGGTCGAGA, the TetR repression strength is 0.218. For the sequence TCCCGGAGAGTGAGAGAGA, the TetR repression strength was determined as 0.408. TCCCGCCAAGTGGGAGAGA gave a TetR repression strength of 0.161. On to TCCCTTCTAGTTAATGAGA, for which the TetR repression strength was 0.395.

On to TCCCGTGAAGTGGGCGAGA, for which the TetR repression strength worked out at 0.0935. Then TCCCTTCCAGTAGTGGAGA, with 0.0917; and TCCCGAGAAGTACGAGAGA, with 0.294; and TCCCGTGTAGTTACGGAGA, with 0.187. For TCCCCCTTAGTTTGTGAGA the value was 0.296. Take TCCCCGCCAGTTAGTGAGA: the TetR repression strength worked out at 0.225. In the case of TCCCTTCAAGTGACAGAGA, the TetR repression strength turned out to be 0.494. Consider TCCCACTTAGTGTGTGAGA, for which the TetR repression strength came to 0.107.

Take TCCCTATTAGTTGATGAGA: the TetR repression strength was 0.248. The sequence TCCCGGACAGTCCGGGAGA returned a TetR repression strength of 0.304. TCCCTGCTAGTACGTGAGA showed a TetR repression strength of 0.481. In turn, TCCCGCAAAGTCCGGGAGA showed a TetR repression strength of 0.108.

TCCCGTGGAGTTGCCGAGA yielded a TetR repression strength of 0.227. Regarding TCCCATGAAGTGCGCGAGA, the TetR repression strength came out at 0.0264. The sequence TCCCGTCCAGTCATCGAGA gave a TetR repression strength of 0.0877.

The sequence TCCCGGCAAGTATTGGAGA registered a TetR repression strength of 0.425. For TCCCCTTTAGTGTATGAGA the value was 0.287; for TCCCGTCTAGTCGCGGAGA, 0.211; for TCCCGAGTAGTGTCCGAGA, 0.17. In turn, TCCCATGAAGTGTCAGAGA returned a TetR repression strength of 0.381. Sequence TCCCTTTAAGTGGGCGAGA came in with a TetR repression strength of 0.274. With TCCCCTATAGTGGGGGAGA, the TetR repression strength turned out to be 0.109.

TCCCTAGTAGTAGAGGAGA showed a TetR repression strength of 0.126. TCCCGGAGAGTCAGTGAGA showed a TetR repression strength of 0.242. Sequence TCCCAAAAAGTGGTGGAGA yielded a TetR repression strength of 0.203.

Consider TCCCGGGTAGTGCGAGAGA, for which the TetR repression strength is 0.273. TCCCTTGTAGTGAGCGAGA came in with a TetR repression strength of 0.138. Consider TCCCATGGAGTATAAGAGA, for which the TetR repression strength worked out at 0.383. Sequence TCCCTCGTAGTGAAGGAGA had a TetR repression strength of 0.185. For the sequence TCCCTGCCAGTAAGGGAGA, the TetR repression strength turned out to be 0.266. As to TCCCGCGAAGTGATCGAGA, the TetR repression strength was 0.252. On to TCCCGAGAAGTGAAAGAGA, for which the TetR repression strength is 0.0859. As for TCCCTAAAAGTAACTGAGA, the TetR repression strength was 0.464. For the sequence TCCCTGGGAGTGCCGGAGA, the TetR repression strength turned out to be 0.0926. Sequence TCCCTTATAGTAGTGGAGA showed a TetR repression strength of 0.0817. For TCCCGCAAAGTGGTAGAGA the value was 0.28; for TCCCTTGCAGTACGGGAGA, 0.1; for TCCCTCGGAGTAGGTGAGA, 0.244.

On to TCCCAGGGAGTGAATGAGA, for which the TetR repression strength came out at 0.272. The sequence TCCCTGGGAGTGTGCGAGA had a TetR repression strength of 0.246. For TCCCAACCAGTGATGGAGA, the TetR repression strength stood at 0.288. Consider TCCCCTGGAGTGGCCGAGA, for which the TetR repression strength stood at 0.166. TCCCATCTAGTCCGTGAGA had a TetR repression strength of 0.174. For TCCCTCTTAGTGTGCGAGA the value was 0.502; for TCCCCGCTAGTACTGGAGA, 0.24. TCCCTCAGAGTTGAGGAGA returned a TetR repression strength of 0.287. As to TCCCCTGGAGTACTGGAGA, the TetR repression strength came out at 0.0983. The sequence TCCCGGAAAGTAAGCGAGA came in with a TetR repression strength of 0.0296.

For the sequence TCCCGCCGAGTAGCGGAGA, the TetR repression strength was found to be 0.244. On to TCCCGAACAGTGAATGAGA, for which the TetR repression strength is 0.315. Then TCCCTAGAAGTGCCAGAGA, with 0.393; and TCCCAGATAGTGTCGGAGA, with 0.125; and TCCCTGTGAGTCCCGGAGA, with 0.0461.

TCCCATCAAGTGGGAGAGA gave a TetR repression strength of 0.187. Regarding TCCCGACCAGTCGAAGAGA, the TetR repression strength is 0.203. Take TCCCTAGTAGTTGTGGAGA: the TetR repression strength was determined as 0.283.

Consider TCCCGGGTAGTATAGGAGA, for which the TetR repression strength is 0.175. Regarding TCCCACTTAGTGCGCGAGA, the TetR repression strength is 0.226. Turning to TCCCCGGGAGTGGGCGAGA, the TetR repression strength was determined as 0.993. Take TCCCATTCAGTGACGGAGA: the TetR repression strength came out at 0.255. As for TCCCCCTCAGTTGTAGAGA, the TetR repression strength turned out to be 0.237. In turn, TCCCTTATAGTGTGCGAGA showed a TetR repression strength of 0.0407.

TCCCCAGGAGTGAAAGAGA displayed a TetR repression strength of 0.156. For the sequence TCCCGGCAAGTGCTCGAGA, the TetR repression strength was found to be 0.114. The sequence TCCCGACGAGTGGGTGAGA yielded a TetR repression strength of 0.195. Regarding TCCCAAATAGTGTCGGAGA, the TetR repression strength turned out to be 0.248. Sequence TCCCATATAGTATATGAGA registered a TetR repression strength of 0.455. With TCCCCATCAGTAACGGAGA, the TetR repression strength came to 0.304. TCCCTAACAGTGGTAGAGA: the TetR repression strength amounted to 0.415. TCCCATTTAGTTCATGAGA showed a TetR repression strength of 0.278. The sequence TCCCTAGCAGTCGTCGAGA showed a TetR repression strength of 0.213. For TCCCGGCTAGTGAAGGAGA the value was 0.585.

For TCCCAGTCAGTACGAGAGA, the TetR repression strength came out at 0.179. Then TCCCATCAAGTGTCGGAGA, with 0.134; and TCCCGATAAGTAGGTGAGA, with 0.183. The sequence TCCCATCAAGTATCTGAGA displayed a TetR repression strength of 0.0968. For TCCCTGACAGTCGACGAGA the value was 0.271; for TCCCGGTTAGTTGTGGAGA, 0.232; for TCCCTGGTAGTTTGAGAGA, 0.211.

TCCCAGCGAGTGTGCGAGA yielded a TetR repression strength of 0.164. In turn, TCCCACTGAGTTCGAGAGA displayed a TetR repression strength of 0.07. For TCCCACTTAGTTGGAGAGA the value was 0.155. Sequence TCCCCGCCAGTTTATGAGA showed a TetR repression strength of 0.371.

Take TCCCCCATAGTGAGGGAGA: the TetR repression strength came out at 0.0787. Then TCCCGGCGAGTGCTTGAGA, with 0.21. As for TCCCAAGTAGTTAGGGAGA, the TetR repression strength was found to be 0.234. For TCCCTGTCAGTCAGAGAGA the value was 0.248; for TCCCCGAAAGTCTATGAGA, 0.212. Regarding TCCCAACGAGTGGATGAGA, the TetR repression strength was 0.203. For TCCCATCGAGTACGTGAGA the value was 0.323; for TCCCCCCGAGTTGTGGAGA, 0.314; for TCCCTTCGAGTGCAGGAGA, 0.3.

As for TCCCGTGTAGTACGTGAGA, the TetR repression strength was 0.13. As for TCCCGCAGAGTGTCGGAGA, the TetR repression strength was 0.444. As to TCCCCAACAGTGCGGGAGA, the TetR repression strength worked out at 0.15. With TCCCTAGTAGTTGTCGAGA, the TetR repression strength is 0.207. For TCCCTTATAGTGGAAGAGA the value was 0.048; for TCCCGCGTAGTGCCGGAGA, 0.138; for TCCCTTAGAGTTAGGGAGA, 0.112.

On to TCCCCTCAAGTCAAAGAGA, for which the TetR repression strength was 0.342. Then TCCCTGGGAGTGAAGGAGA, with 0.179.

The values are drawn from a collection of fitness landscapes (doi:10.1038/s41467-024-54723-y).
